Test results reported in PMC4336329 (PLoS ONE, 2015).
Out of some 310,000 compounds screened, about 14,000 (4.5%) showed an effect of 50% or more. Effects have a minus sign here. This is one part of the list.

molecular target: human ether-à-go-go-related gene (hERG) potassium channel (human, UniProt Q12809); assay: primary screen, population patch clamp on CHO cells stably expressing hERG
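Note: peak tail current of the secondary pulse compared with the same well before compound.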

Chain of human ether-à-go-go-related gene (hERG) potassium channel (Q12809 whole entry, looked up): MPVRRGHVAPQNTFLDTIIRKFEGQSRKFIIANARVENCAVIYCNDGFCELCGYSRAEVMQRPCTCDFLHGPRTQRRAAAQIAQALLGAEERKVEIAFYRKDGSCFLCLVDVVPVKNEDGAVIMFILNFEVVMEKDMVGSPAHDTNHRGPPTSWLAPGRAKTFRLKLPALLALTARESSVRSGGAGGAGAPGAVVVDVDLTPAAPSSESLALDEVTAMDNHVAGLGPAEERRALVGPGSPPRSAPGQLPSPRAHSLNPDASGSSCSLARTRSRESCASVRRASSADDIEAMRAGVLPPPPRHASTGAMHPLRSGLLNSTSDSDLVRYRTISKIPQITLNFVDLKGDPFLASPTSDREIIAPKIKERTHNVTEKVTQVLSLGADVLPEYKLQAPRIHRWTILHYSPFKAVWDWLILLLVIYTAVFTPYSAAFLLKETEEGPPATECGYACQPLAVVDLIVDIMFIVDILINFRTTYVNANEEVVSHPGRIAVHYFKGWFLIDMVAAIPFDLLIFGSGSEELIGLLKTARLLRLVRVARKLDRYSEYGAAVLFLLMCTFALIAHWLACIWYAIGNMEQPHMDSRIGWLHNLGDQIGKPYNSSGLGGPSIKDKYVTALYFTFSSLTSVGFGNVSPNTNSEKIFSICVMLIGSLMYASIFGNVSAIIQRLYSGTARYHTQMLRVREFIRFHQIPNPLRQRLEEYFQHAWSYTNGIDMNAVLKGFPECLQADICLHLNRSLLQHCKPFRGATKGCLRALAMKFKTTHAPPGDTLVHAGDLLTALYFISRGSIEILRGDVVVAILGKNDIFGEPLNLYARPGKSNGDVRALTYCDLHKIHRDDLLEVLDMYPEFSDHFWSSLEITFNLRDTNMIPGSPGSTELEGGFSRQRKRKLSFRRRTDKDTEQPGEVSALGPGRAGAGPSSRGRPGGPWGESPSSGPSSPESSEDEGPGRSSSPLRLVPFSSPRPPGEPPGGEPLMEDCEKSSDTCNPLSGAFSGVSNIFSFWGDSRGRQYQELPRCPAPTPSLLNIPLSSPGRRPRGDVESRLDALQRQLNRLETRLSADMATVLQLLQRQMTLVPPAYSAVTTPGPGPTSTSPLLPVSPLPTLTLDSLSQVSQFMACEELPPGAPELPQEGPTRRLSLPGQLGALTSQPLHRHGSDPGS

| SMILES | hERG current change (%, negative = inhibition) at 10uM [%] |
| --- | --- |
| Cc1cnc(C(=O)NCC(c2ccccc2)c2ccccc2)cn1 | 1.44 |
| Cc1ccc[n+](CC(=O)Nc2ccc([N+](=O)[O-])cc2)c1.[Cl-] | 10.9 |
| Cc1cccc(NNC(N)=S)c1 | 17.7 |
| CCNC(=O)C1(c2ccccc2)CCCC1 | -7.36 |
| CCOC(=O)C(C)NC(=O)Cn1ncc2c(=O)oc3ccc(C)cc3c21 (centres unmarked) | -8.99 |
| CNC(=O)c1ccc(Nc2nnc(-c3ccc(C)c(S(N)(=O)=O)c3)c3ccccc23)cc1 | 5.67 |
| O=S(=O)(Nc1ccccc1Cl)c1ccc(NS(=O)(=O)c2cccs2)cc1 | -10.8 |
| C=CCn1c(SCC(=O)Nc2ccccc2CC)nnc1-c1ccncc1 | -11.1 |
| Cc1ccc(OCc2cn3cccnc3n2)cc1 | 0.869 |
| COc1cc(CO)cc(Br)c1OCC(=O)Nc1cccc2ccccc12 | -7.04 |
| CC(=O)Oc1ccc2c(=O)c(N3C(=O)c4ccccc4C3=O)c(C)oc2c1C | 2.68 |
| CCn1c(SCc2ccc(OC)cc2)nnc1-c1ccncc1 | -18.9 |
| CCOC(=O)CSc1nnc(NC(=O)CCc2ccccc2)s1 | 17 |
| O=C(Nc1ccc(Cl)c([N+](=O)[O-])c1)ONC1=NCCCCC1 | 2.02 |
| CCC(=O)N1CCN(c2ccc(NC(=O)COc3ccccc3[N+](=O)[O-])cc2)CC1 | 13.5 |
| O=C1CS/C(=N/N=C/c2ccccc2)N1c1ccc(O)cc1 | 17.6 |
| O=C(c1ccccc1F)N(Cc1ccc(F)cc1)C1CCS(=O)(=O)C1 (centres unmarked) | 1.9 |
| C#CC(CO)N(CCN(Cc1ccccc1)C(C#C)CO)Cc1ccccc1 (centres unmarked) | -18.1 |
| CCOc1ccc(CN2CCC(n3nccc3NC(=O)C3CC3)CC2)cc1CO | -57.1 |
| COc1ccc(Cc2nc(-c3ccc(-n4cccc4)cc3)no2)cc1OC | 0.17 |
| Cc1ccc(Sc2cc(NCCCO)c([N+](=O)[O-])c3nonc23)cc1 | 16 |
| N/C(=N\OS(=O)(=O)c1ccccc1)c1cccnc1 | 9.41 |

| SMILES | hERG current change (%, negative = inhibition) at 10uM [%] |
| --- | --- |
| O=C(CNc1cccc([N+](=O)[O-])c1)NCCCc1ccccc1 | -49 |
| O=c1cc(CSc2nnc(-c3cccnc3)n2-c2ccccc2F)nc2sccn12 | -4.15 |
| COc1ccc(C2=NCN(c3ccc(C)cc3)C(=S)N2)cc1 | 5.56 |
| Cc1cccc(NS(=O)(=O)c2cccc(C(=O)NCCCN3CCCC3=O)c2)c1 | -1.94 |
| Cc1ccc(C)c(NC(=O)Cc2ccc(S(=O)(=O)N3CCCCC3)s2)c1 | -19 |
| COc1ccc(S(=O)(=O)N(CC(=O)NC2CC2)Cc2ccccc2)cc1 | -1.99 |
| COc1ccccc1N1CCN(C(=O)CNC(=O)c2ccc(Cl)cc2Cl)CC1 | -16.2 |
| Cc1ccc(-n2c(CCC(=O)O)ccc2-c2cccs2)cc1 | -1.29 |
| Cc1cc(C)cc(N(CC(=O)Nc2cccc(C)c2C)S(=O)(=O)c2c(C)[nH]c(=O)[nH]c2=O)c1 | -0.837 |
| CCCC(=O)OCC(=O)Nc1cc(C(C)(C)C)nn1-c1ccccc1 | -35.1 |
| O/N=C1/CC/C(=N\O)c2nn(-c3ccccc3)nc21 | 14 |
| CC1CN(C(=O)COC(=O)c2ccc(Cl)c(S(=O)(=O)N3CCCCC3)c2)CC(C)O1 (centres unmarked) | -13.4 |
| COC(=O)c1ccc(NC(CC(C)C)C(=O)OC)c([N+](=O)[O-])c1 (centres unmarked) | -10.4 |
| CC(C)(C)n1nnnc1C(c1ccc(Cl)cc1)N1CCSCC1 (centres unmarked) | -0.553 |
| COc1ccc(S(=O)(=O)Nc2ccccc2C)cc1C(=O)N1CCOCC1 | 12.9 |
| COc1ccccc1N1C(=O)CC(=O)NC1=O | 20.5 |
| COc1ccc(NC(=O)C2CC(=O)N(c3ccccc3C)C2)c(OC)c1 (centres unmarked) | 13.4 |
| O=C(Cn1c(=O)oc2ccccc21)NCCc1ccccc1 | 5.7 |
| CCOC(=O)c1c(NC(=O)/C=C\C(=O)O)sc(C)c1-c1ccccc1 | 0.805 |
| Cc1cccc(C2c3[nH]c4ccccc4c3CCN2C(=O)c2ocnc2C)n1 (centres unmarked) | -10.5 |
| CCN(CC)C(=S)SC1CCCCN(C(=O)c2ccc(F)cc2)C1=O (centres unmarked) | -3.82 |
| COCCn1c(SCC(=O)Nc2ccc(S(N)(=O)=O)cc2)nc2ccccc21 | -32.1 |
